# Test results reported in the RNAGym collection of RNA variant scans (doi:10.7554/elife.90254).
# The source gives no read counts; variants with many changes may rest on few reads.
# B1: LINE1-full (parent)
# chain: UACGUAGGUGGUUUUCCCCUGAUAGUGCUAAGGGGGCCUGGAAGUUUGGACUGGGCAGAGCUCAACACAGCGUGGCAAAGUGGCUGUGGCUAGACUGCCUCUCUGGAUUCCUCGUCACUCAGCAGGGCAUCUCUGAGAGAAAUGCC
# Variants of: B1
# Assay: self-cleavage, relative activity (ratio to wild type); higher = more cleavage; in vitro, sequencing; the parent is a self-cleaving ribozyme
row,Variant,self-cleavage
1,UACGUAGGUGGUUUUCCCCCGAUAGUUCUAAGGGGGCCUGGAAGUUUGGACUGGGCAGAGCUCAACACAGCGUGGCAUAGUGGCUGUGGCUAGACUGCCUCUCUGGAUUCCUCGUCACUCAGCAGGGCAUCUCUGAGAGAAAUGCC,1.59
2,UACGUAGGUGGUUUUCCCCCGAUAGUGCUAAGGGGGCCUUGAAGUUUGGUCUGGGCAGAGCUCAACACAGCGUGGCAAAGUGGCUGUGGCUAGACUGCCUCUCUGGAUUCCUCGUCACUCAGCAGGGCAUCUCAGAGAGGAAUGCC,0.22
3,UACGUAGGUGGUUUUCCCCCGACAGUACUAAGGGGGCCUGGAAGUUUGGACUGGGCAGAGCUCAACACUGCGUGGCAAAGUGGCUGUGGCUAGACUGCCUCUCUGGAUUCCUCGUCACUCAGCAGGGCAUCUCUGAGAGAAAUGCC,0.05
4,UACGUAGGUGGUUUUCCCCCGAUAGUGCUAAGGGGGCCUGGAAGUUUGGACUGGGCAGAGCUCAACACAGCGUGGCAAAGUGGCUGUGGCUAGACUGCCUCUCUGGAUUCCUCGUCACUCAGCAGGACAUCUCUGAGCGAAGUGCC,0.84
5,UACGUAGGUGGUUUUCCCCCGAUAGUGCUAAGGGGGCCUGGAAGUUUGGACUGGGCAGAGCUCAACACAGCGUGGCAAAGUGGCUGUGGCUAGACUGCCUCUCUGGAUUCCUCGUCACUCAGCAGUGCAUCUCUGAGUGAAAUGCC,1.69
6,UACGUAGGUGGUUUUCCCCCGACAGUGCUAAGGGGGCCUGGAAGUUUGGACUGGGCAGAGCUCAACACAGCGUGGCAAAGUGGCUGUGGCUAGACUGCCUCUCUGGAUUCCUCGUCACACAGCAGGGCAUCUCUGAGAGAAAUGCC,0.8
7,UACGUAGGUGGUUUUCCCCCGAUAGUGCUAAGUGGGCCUGGGAGUUUGGACUGGGCAGAGCUCAACACAGCUUGGCAAAGUGGCUGUGGCUAGACUGCCUCUCUGAAUUCCUCGUCACUCAGCAGGGCAUCUCUGAGAGAAACGCC,1.33
8,UACGUAGGUGGUUUUCCCCCGAUAGUGCUAAGGGGGCCUGGAAGUUUGGACUAGGCAGAGCUCAACACAGCGUGGCAAAGUGGCUGUGGCUAGACUGCCUCUCUGGACUCCUCGUCUCUCAGCAGGGCAUCUCUGAGAGAAAUGCC,1.67
9,UACGUAGGUGGUUUUCCCCCGAUAGCGCUAAGGGGGCCUGGAAGUUUGGACUGGGCAGAGCUCAACACAGCGUGGCAAAGUGGCUGUGGCUAGGCUGCCUCUCUGGAUUCCUCGUCACUCAGCAGGGCAUCUCUGAGAGAAGUGCC,0.59
10,UACGUAGGUGGUUUUCCCCCGAUAGUGCUAAGGGGGCCUGGAAGUUUGGACUGGGCAGAGCUCAACACAGCGUGGCAAAGUGGCUGUGGGUAGACUGCCCCUCUGGAUUCCUCGUCACUCAGCAGGGCAUCUCUGAGAGAAAUGCC,0.11
11,UACGUAGGUGGUUUUCCCCCGAUAGCGCUAAGGGGGCCUGGAAGUUUGGACUGGGCAGAGCUCAUCACAGCGUGGCAAAGUGGCUGUGGCUAGACUGCCUCUCUGGAUUCCUCGUCAUUCAGCAGGGCAUCUCUGAGAGAAAUGCC,0.5
12,UACGUAGGUGGUUUUCCCCCGAUAGUGCUAAGGGGGCCUGGAAGUUUGGACUGGGCAGAGCUCAACACAGCGUGGCAAAGUGGCUGUGGCUAGACUGCCUAUCUGGAUUCCUCGACACUCAGCAGGGCAUCUCUGAGAGAAAUGCC,1.29
13,UACGUAGGUGGUUUUCCCCCGAUAGUGCUAAGGGAGCCUGGAAGUUUGGACUGGGCAGAGCUCAACACAGCGUGGCAAAGUGGCUGUGGCUAGACUGCCUCUCUGGAUUCCUCGCCACUCAACAGGGCAUCUCUGAGAGAAAUGCC,1.69
14,UACGUAGGUGGUUUUCCCCCGAUAGUGCUAAGGGAGCCUGGAAGUUUGGACUGGGCAGAGCUCAACACAGCGUGGCAAAGUGGCUGUGGCUAGACUGCCUCUCUGGAUUCCUCGUCACUCAGCAGGGCAUCUCUGAGAGAAGUGCC,0.87
15,UACGUAGGUGGUUUUCCCCCGAUAGUGCUAAGGGAGCCUGGAAGUUUGGACUGGGCAGAGCUCAACACAGCGUGGCAAGGUGGCUGUGGCUAGACUGCCUCUCUGGAUUCCUCGUCACUCAGCAGGGCAUCUCUGAGAGAAAUGCC,1.4
16,UACGUAGGUGGUUUUCCCCCGAUAGUGCUAAGGGGCCCUGGAGGUUUGGACUGGGCAGAGCUCAACACAGCGUGGCAAAGUGGCAGUGGCUAUACUGCCUCUCUGGAUUCCUCGUCACUCAGCAGGGCAUCUCUGGGAGGAAUGCC,0.07
17,UACGUAGGUGGUUUUCCCCCGAUAGAGCUAAGGGGGCCUGGAAGUUUGGACUGGGCAGAGCUCAACACAGCGUGGCCAAGUGGCUGUGGCUAGACAGCCUCUCUGGAUUCCUCGUCACUCAGCAGGGCAUCUCUGAGAGAAAAGCC,0.08
18,UACGUAGGUGGUUUUCCCCCGAUAGUGCUAAGGGGGCCUAGAAGUUUGGACUGGGCAGAGCUCAACACAGCGUGGCAAAGUGGCUGUGGCUAGACUGCCUCUCUGGACUCCUCGUCACUCAGCAGGGCAUCUCUGAGAGAAAUGCC,1.12
19,UACGUAGGUGGUUUUCCCCCGAUAGUGCUAAGGGGGCCUGGAAGUUUUGACUGGGCAGAGCUCAACACAGCGUGGCAAAGUGGCUGUGGCUAGACUGCCUCUCUGGAUUCCUCGUCACUCAGCAGGGCAUCUCUGAGAGAAAGGCC,1.88
20,UACGUAGGUGGUUUUCCCCCGAUAGUGCUAAGGGGGCCUGGAAGUUUGGACUGGGCAGAGAUCAACACAGCGCGGCAAAGUGGCCGUGGCUAGACUGCCUCUCUGGAUUCCUCGUCACUCAGCAGGGCAUCUCUGAGAGAAAUGCC,0

row,Variant,self-cleavage
1,UACGUAGGUGGUUUUCCCCCGAUAGUGCUAAGGGGGCCUGGAAGUUUGGACUGGGCAGAGCUCAACACAGCGUGGCAAAGUGGCUAUGGCUAGACUGCCUCUCUGGAUUCCUCGUCACACAGCAGGGCAUCUCUGAGAGAAAUGCC,0.11
2,UACGUAGGUGGUUUUCCCCCGAUAGUGCUAAGGGGGCCUGGAAGUUUGAACUGGGCAGAGCUCAACACAGCGUGGCAAAGUGGCUGUGGCUAGACUGCCUCCCUGGAUUCCUCGUCACUCAGCAGGGCAUCUCUGAGAGAAAUGCC,1.66
3,UACGUAGGUGGUUUUCCCCCGAUAGUGCUAAGGGGGCCUGGAAGUUUGGACUGGGCAGAGCUCAACACAGCGUGGCAAAGUGGCUGUGGCUAGACUGCCUCUCUGGAUUCCUCGUCACUCAGCAAGGCAUCUCUGAGAGAAAAGCC,1.25
4,UACGUAGGUGGUUUUCCCCCGACGGUGCUAAGGGGGCCUGGAAGUUUGGACUUGGCAGAGCUCAACACAGCGUGGCAAAGUGGCUGUGGCUAGACUGCCUCUCUGGAUUCCUCGUCACUCAGCAGGGCAUCUCUGAGAGAAAUGCC,0.67
5,UACGUAGGUGGUUUUCCCCCGAUAGUGCUAAGUGGGCCUGGAAGUUUGGACUGGGCAGAGCUCAACACAGCGUGGCAAAGUGGCUGUGGCUAGACUGCCUCUCUGGAUUCCUCGUCACCCAGCAGGGCAUCUCUGAGAGAAAUGCC,1.45
6,UACGUAGGUGGUUUUCCCCCGAUAGUGCUAAGGGAGCCUGGAAGUUUGGACUGGGCAGAGCUCAACACAGCGUGGCAAAGUGGCUGUGGCUAAACUGCCUCUCUGGAUUCCUCGUCACUCAGCAGGGCAUCUCUGAGAGAAAUGCC,0.04
7,UACGUAGGUGGUUUUCCCCCGAAAGUGCUAAGGGGGCCUGGAGGUUUGGGCUGGGCAGAGCUCAACACAGCGUGGCAAAGUGGCUGUGGCUAGACUGCCUCUCUGGAUUCCUCGUCACUCAGCAGGGCAUCUCUAAGAGAAAUGCC,2.3
8,UACGUAGGUGGUUUUCCCCCGAUAGAGCUAGGGGGGCCUGGAAGUUUGGACUGGGCAGAGCUCAACACAGCGUGGCAAAGUGGCUGUGGCUAGACUGCCUCCCUGGAUUCCUCGUCACUCAGCAGGGCGUCUCAGAGAGAAAUGCC,0
9,UACGUAGGUGGUUUUCCCCCGAUAGUGCUAAGGUGGCCUGGAAGUUUGGACUGGGCAGAGCUCAACACAGCGUGGCAAAGUGGCUGUGGCCAGACUGCCUCUCUGGAUUCCUCGUCACUCAGCAGGGCAUCUCUGUGAGAAAUGCC,0.65
10,UACGUAGGUGGUUUUCCCCCGAUAGAGCUAAGGGGGCCUGGAAGUUUGGACUGGGCAGAGCUCAACACAGCGUGGCAAAGUGGCUGUGGCUAGACUGCCUCUCUGGAUACCUCGUCACUCAGCAGGGCAUCUCUGAGAGAAAUGCC,0.55
11,UACGUAGGUGGUUUUCCCCCGAUAGUGCUAAGGGGGCCUGGAAGUUUGGACUGGGCAGAGCUCAACACAGCGUUGCAGAGUGGCUGUGGCUAGACUGCCUCUCUGGAUUCCUCGUCACUCAGCAGGGCAUCUCUGAGAGAAAUGCC,1.86
12,UACGUAGGUGGUUUUCCCCCGACAGUGCUGAGGGGGCCUGGAAGUUUGGACUGGGCAGAGCUCAACACAGCGUGGCAAAGUGGCUGUGGCUAGACUGCCUCUCUGGAUUCCUCGUCACUCAGCAGGGCAUCUCUGAGGGAAAUGCC,1.72
13,UACGUAGGUGGUUUUCCCCCGAUAGCGCUAAGGGGGCCUGGAAGCUUGGACUGGGCAGAGCUCAACACAGCGUGGCAAAGUGGCUGUGGCUAGACUGCCUCUCUGGACUCCUCGUAACUUAGCAGGGCAUCUCUGAGAGAAAUGCC,1.79
14,UACGUAGGUGGUUUUCCCCCGAUAGAGCUAAGGGGGCCUGGAAGUUUGGACUGGGCAGAGCUCAGCACAGCGUGGCAAAGUGGCUGUGGCUAGACUGCCUCUCUGGAUUCCUCGUCACUCAGCUGGGCAUCUCUGAGAGAAAUGCC,0
15,UACGUAGGUGGUUUUCCCCCGAUAGUGCUAAAGGGGCCUGGAAGUUUGGACUGGGCAGAGCUCAACACAGCGUGGCAAAGUGGCUGUGGCUGGACUGCCUCUCUGGAUUCCUCGUCACUCAGCAGGGCAUCACUGAGAGAAAUGCC,0.04
16,UACGUAGGUGGUUUUCCCCCGAUAGUGCUAAGGUGGCCUGGAAGUUUGGACUGGGCAGAGCUCAACACAGCGUGGCAAAGUGGCUGUGGCUAGACUGCCUCUCUGGAUUCCUCGUCACUCAGCAGGGCACCUCUGAGAGAAAUGCC,1.43
17,UACGUAGGUGGUUUUCCCCCGAUAGUGCUAAGGGGGCCUGGAAGUUUGGACUGGGCAGAGCUCAACACAGCGUGACAAAGUGGCUGUGGCUAGACUGCCUCUCUGGAUUCCUCGUCACUCAGCGGGGCACCUCUGAGAGAAAUGCC,1.2
18,UACGUAGGUGGUUUUCCCCCGAUAGUGCUAAGGGGGCCUGGAAGUUUGGACUGGGCAGAGUUCAACACAGCGUGGCAAAGUGGCUGUUGCUAGACUGCCUCUCUGGAUUCCUCGUCACUCAGCAGGGCAACUCUGAGAGAAAUGCC,0.05
19,UACGUAGGUGGUUUUCCCCCGAUAGUGCUAAGGUGGCCUGGAAGUUUGGACUGGGCAGAGCUCAACACAGCGUGGCAAAGAGGCUGUGGCUAGACUGCCUCUCUGGAUUCCUCGUCACUCAGCAGGGCGUCUCUGAGAGAAAUGCC,2.56
